Test results taken from PubChem BioAssay (Tox21).
Where “and” joins values, the source holds several entries; their conditions need not be identical. Equal entries are not always repeated. This list was built around the results that the source calls inconclusive (neither active nor inactive); the mix of calls is not that of the screen. Potencies beside an inconclusive call are fits to weak or partial responses and may not hold up. Some structures have more than one record in an assay (separate samples or runs), and their calls can disagree. Calls of active or inactive are those of the source. Calls come from the whole dose curve; as a rule, active = well fitted activation curve with a large enough effect in the repeat runs; inconclusive = weak or mixed curves, or effect the other way; inactive = no such curve, though single readings can be large or run the other way.

assay: qHTS assay to identify small molecule agonists of the retinoic acid receptor (RAR) signaling pathway (AID 1159553); settings: C3RL4 RARE luciferase reporter, agonist, 6 h; activation: at 73.3 µM (top of the series) unless noted
From the text: National Center for Advancing Translational Sciences [NCATS] NIH Chemical Genomics Center [NCGC] U.S. Environmental Protection Agency [EPA] National Institutes of Environmental Health Sciences [NIEHS] National Toxicology Program [NTP] Assay overview: All-trans Retinoic acid (atRA) is the potent natural metabolite of retinol and plays an important role in normal embryonic development and maintenance of cellular phenotype in adult animals. atRA is the activating ligand for the retinoic acid receptors (RARs) which form heterodimers with retinoid X receptors (RXRs) on the retinoic acid response element (RARE). Through activation of the RAR/RXRs nuclear receptors, atRA regulates the transcription of a large number of protein-coding genes and regulatory RNAs. Intracellular levels of atRA are controlled by the retinol signaling pathway (RSP) that regulates the biosynthesis and catabolism of atRA to maintain physiological levels. Chemicals that interfere with the RSP can cause abnormal intracellular levels of atRA and therefore are potential developmental toxicants. To assess compounds for the potential adverse effect on embryonic development through interfering with retinol signaling, a cell-based RARE luciferase reporter gene assay was used. C3RL4 cell line (OARSA/CFSAN/FDA, Laurel, MD) was used to screen Tox21 10K compound library for identifying activators of the RSP.
Assay Protocol Summary: C3RL4 cells were seeded at 1,000/well in 5 uL of assay medium into white solid 1,536-well tissue culture plates (Greiner Bio-One North America Inc. Monroe, NC) using a Multidrop Combi (Thermo Scientific, Waltham, MA) dispenser. After incubation at 37 C and 5% CO2 for an overnight, 23 nL of compounds dissolved in DMSO, positive control or DMSO only were transferred by a Pintool station (Kalypsys, San Diego, CA). After 6 hr incubation at 37 C and 5% CO2, 5 uL of Amplite Luciferase reagent (AAT Bioquest Inc. Sunnyvale, CA) was added to each assay plate using a Flying Reagent Dispenser (FRD) (Aurora Discovery, San Diego, CA). Luminescence was quantified on a ViewLux plate reader (PerkinElmer, Waltham, MA) after 30 min incubation at room temperature.
% is set by controls: 0 for no effect and ±100 for the full control effect; potency is the fitted concentration of half-maximal effect; tags give direction and shape of the fitted curve.

Row | Compound | Potency | activation
1 | CCOP(=S)(OCC)Oc1ccc2c(C)c(Cl)c(=O)oc2c1 | active: 11.9 µM | 
2 | ClC(Cl)=C(Cl)C(Cl)=C(Cl)Cl | inactive | 
3 | N#CCCC#N | inconclusive: 67.1 µM [activator] | 
4 | CCOC(=O)Nc1cccc(OC(=O)Nc2ccccc2)c1 | active: 27.3 µM | 
5 | [Cl][Sb]([Cl])[Cl] | inconclusive: 68.6 µM [inhibitor, single point] | 
6 | C=CCOC(C)=O | active: 75.9 µM | 
7 | O=C(CCl)Nc1ccccc1 | inconclusive: 61.1 µM [inhibitor, partial curve, poor fit] | 
8 | CCOP(=S)(OCC)OP(=S)(OCC)OCC | inconclusive: 68.6 µM [activator, partial curve, poor fit] | 
9 | Nc1ccc(Br)cc1 | inconclusive: 13.7 µM [inhibitor, full curve] and inactive | 
10 | CCCCN(CCCC)C(=S)[S-].CCCCN(CCCC)C(=S)[S-].[Zn+2] | inconclusive: 6.85 µM [inhibitor, full curve] | 
11 | O=C(CBr)c1ccc(O)cc1 | inconclusive: 61.1 µM [inhibitor, single point] | 
12 | CCOCN(C(=O)CCl)c1c(C)cccc1CC | inconclusive: 68.6 µM [inhibitor, partial curve, poor fit] | 
13 | COC(C)(C)CCC[C@H](C)C/C=C/C(C)=C/C(=O)OC(C)C |  | inactive: 2.78%
14 | O=C(CCl)C(Cl)Cl | inconclusive: 43.7 µM [inhibitor] | 
15 | CC(C)(C)C(O)/C(=C\c1ccc(Cl)cc1Cl)n1cncn1 (stereo not given) | inconclusive: 74 µM [inhibitor] | 
16 | CCC(C)(NC(=O)c1cc(Cl)c(C)c(Cl)c1)C(=O)CCl (stereo not given) | inconclusive: 43.5 µM [inhibitor, partial curve] | 
17 | CCOC(=O)CBr |  | inactive: -1.37% [at 94.8 µM]
18 | O=NN1CCCCCC1 |  | inactive: -1.72%
19 | C/C(=C\c1ccccc1)[N+](=O)[O-] |  | inconclusive: 8.39% [phenotype inactive]
20 | O=C(NC(=O)c1ccccc1Cl)Nc1ccc(OC(F)(F)F)cc1 |  | inactive: 3.03%

Row | Compound | Potency | activation
21 | COP(N)(=O)SC (stereo not given) | inconclusive: 0.0014 µM [activator, full curve, poor fit] | 
22 | O=[N+]([O-])C(Br)Br |  | inactive: 2.21%
23 | c1ccc2sc(SNC3CCCCC3)nc2c1 | active: 30.3 µM and active: 68.6 µM | 
24 | CCCCCCOC(=O)c1ccccc1C(=O)OCCCCCC | inactive | 
25 | O=C=Nc1ccc(Cl)cc1 | active: 24.3 µM | 
26 | OC[P+](CO)(CO)CO | inconclusive: 6.18 µM [activator, partial curve] | 
27 | O=C(O)C(Cl)(Cl)Cl |  | inconclusive: 4.71% [phenotype inactive]
28 | CC(C)(CCl)C(=O)Cl | inconclusive: 3.06 µM [activator, full curve, poor fit] | 
29 | O=C(O)CCCCCCNC1c2ccccc2CCc2ccccc21 |  | inactive: 0.0526%
30 | CC(C)(C)c1cc([N+](=O)[O-])cc(C(C)(C)C)c1O | inconclusive: 7.7 µM [inhibitor, partial curve, poor fit] | 
31 | Cc1cc(O)ccc1Cl |  | inconclusive: 1.43% [phenotype inactive]
32 | CCCCCCCCCCCCCl |  | inconclusive: -5.02% [phenotype inactive]
33 | O=C(CCl)c1ccccc1 | inconclusive: 62 µM [activator, partial curve] | 
34 | CC(C)(OOC(C)(C)c1ccccc1)c1ccccc1 | inactive | 
35 | CC(C)N(C(=O)COc1nnc(C(F)(F)F)s1)c1ccc(F)cc1 | inconclusive: 77 µM [inhibitor, single point] | 
36 | CC(C)Nc1ccc(Nc2ccccc2)cc1 | inconclusive: 76.6 µM [inhibitor, single point] and inconclusive: 77 µM [inhibitor, single point] | 
37 | IC(I)=C(I)I | inconclusive: 6.11 µM [inhibitor, full curve] | 
38 | N#CCCl |  | inactive: 1.76% [at 94.8 µM]
39 | Cc1ccc(N)cc1 | active: 61.5 µM and inconclusive: 61.1 µM [activator, partial curve, poor fit] | 

same assay, conditions: C3RL4 RARE luciferase reporter, agonist, 6 h; at 73.3 µM (top of the series)

Row | Compound | activation
40 | O=C(O)C(Cl)(Cl)Cl | inactive: 0.33% and inactive: 0.648%
